Reference: publication PMC4336329 (PLoS ONE, 2015)
Hit rate of the full screen: of about 310,000 compounds, about 14,000 (4.5%) showed an effect of 50% or more. Effects have a minus sign here. Some of the results follow.

Molecular target: human ether-à-go-go-related gene (hERG) potassium channel (human, UniProt Q12809)
Experiment: primary screen, population patch clamp on CHO cells stably expressing hERG
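Also: peak tail current of the secondary pulse compared with the same well before compound.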

Chain of human ether-à-go-go-related gene (hERG) potassium channel (Q12809 whole entry, looked up): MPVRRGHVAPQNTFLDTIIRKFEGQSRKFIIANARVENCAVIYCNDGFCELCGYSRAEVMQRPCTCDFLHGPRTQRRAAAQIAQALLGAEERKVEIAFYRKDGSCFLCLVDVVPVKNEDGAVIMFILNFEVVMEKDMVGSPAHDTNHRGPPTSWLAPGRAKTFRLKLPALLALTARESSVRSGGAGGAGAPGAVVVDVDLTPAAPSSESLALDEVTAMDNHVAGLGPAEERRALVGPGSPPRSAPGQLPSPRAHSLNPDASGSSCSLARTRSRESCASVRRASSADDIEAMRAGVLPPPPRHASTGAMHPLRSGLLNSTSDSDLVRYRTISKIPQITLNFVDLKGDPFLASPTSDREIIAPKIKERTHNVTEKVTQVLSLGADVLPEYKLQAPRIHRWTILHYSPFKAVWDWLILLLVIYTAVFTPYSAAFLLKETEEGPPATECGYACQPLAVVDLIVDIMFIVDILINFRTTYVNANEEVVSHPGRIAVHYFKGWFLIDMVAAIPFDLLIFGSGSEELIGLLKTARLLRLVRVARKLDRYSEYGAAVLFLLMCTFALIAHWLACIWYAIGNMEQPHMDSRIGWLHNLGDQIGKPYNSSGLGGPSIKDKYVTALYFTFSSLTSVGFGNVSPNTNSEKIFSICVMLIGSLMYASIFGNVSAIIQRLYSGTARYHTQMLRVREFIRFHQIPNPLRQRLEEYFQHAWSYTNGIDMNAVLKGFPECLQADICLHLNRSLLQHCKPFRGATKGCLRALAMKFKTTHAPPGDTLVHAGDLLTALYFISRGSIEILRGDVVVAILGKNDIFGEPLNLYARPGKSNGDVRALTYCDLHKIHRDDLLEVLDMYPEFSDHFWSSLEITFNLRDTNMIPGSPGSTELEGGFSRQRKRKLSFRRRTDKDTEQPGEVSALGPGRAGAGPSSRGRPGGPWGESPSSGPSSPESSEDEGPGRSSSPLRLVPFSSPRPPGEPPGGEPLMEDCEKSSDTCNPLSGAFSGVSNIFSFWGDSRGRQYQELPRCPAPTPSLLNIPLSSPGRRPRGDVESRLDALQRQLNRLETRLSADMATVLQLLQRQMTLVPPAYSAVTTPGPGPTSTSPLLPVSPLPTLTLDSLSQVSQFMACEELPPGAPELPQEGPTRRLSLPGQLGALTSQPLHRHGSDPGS

First: CN(CC(=O)Nc1c(Cl)cccc1Cl)C(=O)c1ccncc1
Second: COc1ccc(Cl)cc1NC(=O)CN(C)C(=O)Cc1n[nH]c(=O)c2ccccc12
The “hERG current change (%, negative = inhibition) at 10uM” value of the first is higher: 19.4% for the first, -13.7% for the second.

First: O=C(Nc1ccc(N2CCOCC2)cc1)C1CC(=O)N(c2ccc(Cl)cc2)C1 (stereo not shown)
Second: Cc1ccc(NC(=O)C2CCCN(C(=O)c3ccc(Cl)cc3)C2)c(C)c1 (stereo not shown)
The “hERG current change (%, negative = inhibition) at 10uM” value of the first is higher: 2.53% for the first, -59% for the second.

First: COc1ccc(Cc2[nH]n3c(=O)c(Cl)c(C)nc3c2-c2ccccc2)cc1
Second: COc1ccc(CCn2c(=N)c(C(=O)NC3CCCC3)cc3c(=O)n4cccc(C)c4nc32)cc1
The “hERG current change (%, negative = inhibition) at 10uM” value of the first is higher: 12.5% for the first, -77.8% for the second.

Going from `N/C(=N\NC(=O)Nc1ccc(Cl)cc1)c1ccccn1` to `O=C(Nc1cccc(O)c1)C(=O)Nc1ccccn1`, the “hERG current change (%, negative = inhibition) at 10uM” value rises from -35.5% to 9.79%.

First: Cc1oc(-c2ccc(Cl)cc2)nc1CS(=O)CC(=O)NCc1ccccn1 (stereo not shown)
Second: Cc1onc(-c2ccccc2Cl)c1C(=O)Nc1nnc(-c2ccc(Br)cc2)s1
The “hERG current change (%, negative = inhibition) at 10uM” value of the first is lower: -10.7% for the first, 16.2% for the second.

Going from `Cc1nnc(N(Cc2ccco2)C(=O)c2cccc(C#N)c2)s1` to `CCn1c(COc2ccccc2)nnc1SCC(=O)NCc1ccco1`, the “hERG current change (%, negative = inhibition) at 10uM” value falls from -1.98% to -4.11%.

Compared with `O=C(c1ccc(F)cc1)C1CCN(C(=S)Nc2ccccc2)CC1`, `O=C(NCCc1ccccc1)C(=O)NCC1OCCCN1S(=O)(=O)c1ccc(F)cc1` (stereo not shown) is higher in “hERG current change (%, negative = inhibition) at 10uM” value: -28.8% for the first, -17.1% for the second.

Going from `COc1ccc(C2C3=C(CCCC3=O)Nc3nc(C(F)(F)F)nn32)cc1OC` (stereo not shown) to `CCOc1ccc(C2NCCc3cc(OC)c(OC)cc32)cc1OC` (stereo not shown), the “hERG current change (%, negative = inhibition) at 10uM” value rises from 4.17% to 12.3%.

First: N#Cc1cccnc1N1CCN(C(=O)COCC(=O)O)CC1
Second: COc1ccc(N2CCN(C(=O)CSc3nc4cc(OC)c(OC)cc4cc3C#N)CC2)cc1
The “hERG current change (%, negative = inhibition) at 10uM” value of the first is higher: 9.97% for the first, -22.2% for the second.

Going from `COCC(C)n1c(C)cc(C(=O)COC(=O)c2ccc(N3CCCC3=O)cc2)c1C` (stereo not shown) to `COC(=O)C1=C(c2ccc(C(C)=O)cc2)C[C@@H]2CC[C@H]1N2C(=O)NCCCOC(C)C`, the “hERG current change (%, negative = inhibition) at 10uM” value falls from 11.6% to 1.03%.

Going from `Cc1noc(C)c1S(=O)(=O)N1CCC(C(=O)N2CCN(c3ccc(Cl)cc3)CC2)CC1` to `O=C(C1CCCN(S(=O)(=O)c2cccc3nonc23)C1)N1CCN(c2ccccc2Cl)CC1` (stereo not shown), the “hERG current change (%, negative = inhibition) at 10uM” value rises from -51.7% to -18.4%.

Compared with `CCOc1cc(/C=C2\SC(=S)N(NS(=O)(=O)c3ccc(C)cc3)C2=O)ccc1O`, `CCOc1ccc(N2C(=O)S/C(=C\c3ccc(O)c(OCC)c3)C2=O)cc1` is higher in “hERG current change (%, negative = inhibition) at 10uM” value: -27.7% for the first, 5.06% for the second.

Compared with `Cc1noc(C)c1CN1C(=O)c2ccc([N+](=O)[O-])cc2C1=O`, `CC(C)CN1C(=O)c2ccc(C(=O)Nc3ccccn3)cc2C1=O` is lower in “hERG current change (%, negative = inhibition) at 10uM” value: 0.754% for the first, -14.7% for the second.

Compared with `Cc1cc(C)c(NC(=O)CN2C(=O)NC3(CCCc4ccccc43)C2=O)c(Cl)c1` (stereo not shown), `Cc1cccc(N(CC(=O)N2CCc3ccccc3C2)S(C)(=O)=O)c1C` is higher in “hERG current change (%, negative = inhibition) at 10uM” value: 1.14% for the first, 1.47% for the second.

First: COC(=O)C(/C=N/O)NC(=O)c1ccccc1 (stereo not shown)
Second: CCCC/C(=N\NC(=O)c1ccc(Br)o1)c1ccccc1
The “hERG current change (%, negative = inhibition) at 10uM” value of the first is lower: 4.38% for the first, 10.5% for the second.

Compared with `CCCCN(C)CCCN1C(=O)C2C(C(=O)Nc3cccc(OC)c3)C3C=CC2(O3)C1C(=O)NC1CCCCC1C` (stereo not shown), `COc1cccc(N(C(=O)C2COc3ccccc3O2)C(C(=O)NC2CCCCC2)c2ccc(O)cc2)c1` (stereo not shown) is higher in “hERG current change (%, negative = inhibition) at 10uM” value: -21.6% for the first, 3.39% for the second.

Compared with `CCOC(=O)CSc1ncnc2c1cnn2-c1ccc(Cl)cc1`, `N#Cc1ccc(-c2ccco2)nc1SCC(=O)c1ccc(Cl)cc1` is higher in “hERG current change (%, negative = inhibition) at 10uM” value: 8.88% for the first, 15.3% for the second.

First: COc1ccc(NC(=O)CSc2nnc(CN3CCOCC3)n2-c2ccccc2)cc1Cl
Second: Cc1csc(NC(=O)CSc2ccc(-c3ccccc3)nn2)n1
The “hERG current change (%, negative = inhibition) at 10uM” value of the first is higher: -40.7% for the first, -66.9% for the second.

First: N#C/C(=C\c1cccs1)C(=O)Nc1ccccn1
Second: O=C(COc1ccccc1[N+](=O)[O-])N/N=C/c1ccncc1
The “hERG current change (%, negative = inhibition) at 10uM” value of the first is lower: 2.39% for the first, 3.46% for the second.

Compared with `CC(C)CNC1=C(C(=S)Nc2ccccc2)C(=O)CC(C)(C)C1`, `CCOC(=O)c1c(O)cc(C)cc1Nc1ccccc1` is higher in “hERG current change (%, negative = inhibition) at 10uM” value: 6.14% for the first, 10.6% for the second.

Going from `CN1CCN(C(=O)C2(NC(=O)NCc3ccccc3)CCCCC2)CC1` to `CC12CCC(C(=O)N(CC(O)CN3CCN(Cc4ccccc4)CC3)C1=O)C2(C)C.Cl` (stereo not shown), the “hERG current change (%, negative = inhibition) at 10uM” value falls from 13.2% to -6.03%.

First: NC(=O)CC(NC(=O)Cc1cccc2ccccc12)c1ccc(NC2CCCCCCC2)c([N+](=O)[O-])c1 (stereo not shown)
Second: COc1cccc(CNC(=O)CCC2CCCN(C(=O)c3cccc(Cl)c3)C2)c1 (stereo not shown)
The “hERG current change (%, negative = inhibition) at 10uM” value of the first is higher: 6.61% for the first, -20.9% for the second.

Compared with `COc1ccc(-c2csc(NC3OC(=O)c4c3ccc(OC)c4OC)n2)cc1OC` (stereo not shown), `COc1ccc(-c2c(=O)n(OC)c3ccccc3[n+]2[O-])cc1OC` is higher in “hERG current change (%, negative = inhibition) at 10uM” value: 9.71% for the first, 23.5% for the second.

First: Cc1cccc(C)c1OCC(N)C(C)C.I (stereo not shown)
Second: Cc1ccc(C(=O)C(C)OC(=O)C2=COCCO2)cc1C (stereo not shown)
The “hERG current change (%, negative = inhibition) at 10uM” value of the first is lower: -8.48% for the first, -3.75% for the second.

Going from `Cc1ccc(N2C(=NC(=O)c3ccccc3)SC3CS(=O)(=O)CC32)cc1` (stereo not shown) to `Cc1ccc(N(CC(=O)NC(C)c2ccccc2)S(=O)(=O)c2cccs2)cc1` (stereo not shown), the “hERG current change (%, negative = inhibition) at 10uM” value falls from 10.8% to 2.82%.

Going from `CC(C)n1nnnc1SCC(=O)c1ccc2c(c1)OCCO2` to `O=C(N/N=C/c1ccccc1)c1ccc2c(c1)OCO2`, the “hERG current change (%, negative = inhibition) at 10uM” value falls from 5.65% to -1.44%.

Going from `O=C(CC1c2ccccc2Oc2ccccc21)N1CCN(c2ccccn2)CC1` to `Cl.c1ccc(C2NCc3ccccc3-n3cccc32)cc1` (stereo not shown), the “hERG current change (%, negative = inhibition) at 10uM” value falls from -6.59% to -9.86%.

Going from `COc1ccc2cc(CCNC(=O)c3ccc4c(c3)OCO4)c(=O)[nH]c2c1` to `Cc1ccc2c(c1)CCCN2C(=O)Nc1ccc2c(c1)OCO2`, the “hERG current change (%, negative = inhibition) at 10uM” value rises from -11.9% to 11.2%.

First: C#CCOCCOCCOCCNc1nc(N2CCOCC2)nc(N2CCN(C(=O)Cn3cc(CC(C)O)nn3)CC2)n1 (stereo not shown)
Second: CCN1CCN(c2ccc(NC(=O)c3cccnc3)cc2Cl)CC1
The “hERG current change (%, negative = inhibition) at 10uM” value of the first is higher: -1.31% for the first, -16.8% for the second.

Going from `CN(Cc1ccccc1OCCO)CC1CCCN(CCc2ccc(Cl)cc2)C1` (stereo not shown) to `CSCCC(NS(=O)(=O)c1ccc(Cl)cc1)C(=O)OCc1cccc(Cl)c1` (stereo not shown), the “hERG current change (%, negative = inhibition) at 10uM” value rises from -66.9% to 2.72%.

Going from `CC(C)CC(=O)NC(NCC1CCCO1)C(Cl)(Cl)Cl` (stereo not shown) to `O=C(COC(=O)/C=C/c1ccco1)NC1CCCCC1`, the “hERG current change (%, negative = inhibition) at 10uM” value rises from -2.53% to 5.33%.

Going from `O=C(O)C1C2CC2CN1C(=O)c1ccc(Cl)cc1` (stereo not shown) to `CC(=O)NCCC(=O)Nc1ccc(C(N)=O)cc1`, the “hERG current change (%, negative = inhibition) at 10uM” value falls from 17.4% to 3.52%.

Compared with `COc1cccc(C(N)=O)c1OC(=O)Cc1ccccc1F`, `COc1ccc(C(=O)OCC2CC(c3ccccc3)N(C)O2)cc1` (stereo not shown) is lower in “hERG current change (%, negative = inhibition) at 10uM” value: 9.25% for the first, -17.5% for the second.

First: COC(=O)c1c(NC(=O)Cc2ccccc2)sc2c1C(C(=O)OC)CC2 (stereo not shown)
Second: O=C(COC(=O)c1ccc2c(c1Cl)C(=O)c1ccccc1C2=O)NC1CC1
The “hERG current change (%, negative = inhibition) at 10uM” value of the first is lower: -17.1% for the first, 8.74% for the second.

Going from `CN1CCN(C(CNS(=O)(=O)c2ccc(F)cc2)c2cccnc2)CC1` (stereo not shown) to `CCOc1ccc(S(=O)(=O)N2CCC(C(=O)N3CCc4ccccc4C3)CC2)cc1`, the “hERG current change (%, negative = inhibition) at 10uM” value falls from -7.43% to -26.1%.

Compared with `Cn1c(SCC(=O)N2CCc3ccccc32)nnc1C1CC1`, `O=c1c2c(n3nnnc3n1-c1ccccc1)-c1ccccc1CC21CCCC1` is lower in “hERG current change (%, negative = inhibition) at 10uM” value: 15.1% for the first, 7.98% for the second.

Going from `N#Cc1ccc(C23CC4(C2)[C@H](CN(Cc2ccc(-c5ccccc5)cc2)[C@@H]4c2ccccc2)C3c2ccc(C(F)(F)F)cc2)cc1` (stereo partly shown) to `C(=C\c1ccc(/C=C/c2ccccc2)nn1)/c1ccccc1`, the “hERG current change (%, negative = inhibition) at 10uM” value rises from 6.84% to 26.1%.

Going from `CCCCCCCn1c(NC(=O)CC)nc2ccccc21` to `CC(C)C(=O)NCCc1nc2ccccc2n1CCOc1ccccc1`, the “hERG current change (%, negative = inhibition) at 10uM” value rises from -37.3% to -15.1%.

First: O=C(NNC1CC(=O)N(c2ccccc2)C1=O)c1cccnc1 (stereo not shown)
Second: Cc1cccc(NC(=O)C(NS(=O)(=O)c2ccc3c(c2)CCC(=O)N3)c2ccccc2)n1 (stereo not shown)
The “hERG current change (%, negative = inhibition) at 10uM” value of the first is higher: 18.6% for the first, -12.9% for the second.

Going from `COC(=O)c1cc(NS(=O)(=O)c2ccc(NCc3cccnc3)c([N+](=O)[O-])c2)cc(C(=O)OC)c1` to `COc1cccc(C(=O)NCCC(=O)NCc2cc(=O)n(C)c(=O)n2C)c1`, the “hERG current change (%, negative = inhibition) at 10uM” value rises from 5.61% to 13.9%.

Compared with `CCC1=NN(C(=O)c2ccccc2Br)C(O)(c2ccc(Br)cc2)C1` (stereo not shown), `OCCNCC(O)Cn1c2ccccc2c2ccccc21` (stereo not shown) is lower in “hERG current change (%, negative = inhibition) at 10uM” value: 25.2% for the first, 10.2% for the second.

Compared with `CC(=O)c1c(C)[nH]c(C(=O)OC2CCCCC2=O)c1C` (stereo not shown), `Cc1c(CCC(=O)N2CCC(C(=O)O)CC2)c(=O)oc2cc3oc4c(c3cc12)CCCC4` is lower in “hERG current change (%, negative = inhibition) at 10uM” value: 12% for the first, 11.8% for the second.

For `Cc1cccc(NC(=O)c2ccc(Cl)c(S(=O)(=O)N3CCCCCC3)c2)n1`, the “hERG current change (%, negative = inhibition) at 10uM” value was -25.1%.
